# Source: publication PMC4336329 (PLoS ONE, 2015)
# Out of some 310,000 compounds screened, about 14,000 (4.5%) showed an effect of 50% or more. The effect is printed as a negative number. The list shows a part of the results.
# Target: human ether-à-go-go-related gene (hERG) potassium channel (human, UniProt Q12809)
# Test: primary screen, population patch clamp on CHO cells stably expressing hERG
# 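Note: peak tail current of the secondary pulse compared with the same well before compound.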
# Sequence of human ether-à-go-go-related gene (hERG) potassium channel (Q12809 whole entry, looked up): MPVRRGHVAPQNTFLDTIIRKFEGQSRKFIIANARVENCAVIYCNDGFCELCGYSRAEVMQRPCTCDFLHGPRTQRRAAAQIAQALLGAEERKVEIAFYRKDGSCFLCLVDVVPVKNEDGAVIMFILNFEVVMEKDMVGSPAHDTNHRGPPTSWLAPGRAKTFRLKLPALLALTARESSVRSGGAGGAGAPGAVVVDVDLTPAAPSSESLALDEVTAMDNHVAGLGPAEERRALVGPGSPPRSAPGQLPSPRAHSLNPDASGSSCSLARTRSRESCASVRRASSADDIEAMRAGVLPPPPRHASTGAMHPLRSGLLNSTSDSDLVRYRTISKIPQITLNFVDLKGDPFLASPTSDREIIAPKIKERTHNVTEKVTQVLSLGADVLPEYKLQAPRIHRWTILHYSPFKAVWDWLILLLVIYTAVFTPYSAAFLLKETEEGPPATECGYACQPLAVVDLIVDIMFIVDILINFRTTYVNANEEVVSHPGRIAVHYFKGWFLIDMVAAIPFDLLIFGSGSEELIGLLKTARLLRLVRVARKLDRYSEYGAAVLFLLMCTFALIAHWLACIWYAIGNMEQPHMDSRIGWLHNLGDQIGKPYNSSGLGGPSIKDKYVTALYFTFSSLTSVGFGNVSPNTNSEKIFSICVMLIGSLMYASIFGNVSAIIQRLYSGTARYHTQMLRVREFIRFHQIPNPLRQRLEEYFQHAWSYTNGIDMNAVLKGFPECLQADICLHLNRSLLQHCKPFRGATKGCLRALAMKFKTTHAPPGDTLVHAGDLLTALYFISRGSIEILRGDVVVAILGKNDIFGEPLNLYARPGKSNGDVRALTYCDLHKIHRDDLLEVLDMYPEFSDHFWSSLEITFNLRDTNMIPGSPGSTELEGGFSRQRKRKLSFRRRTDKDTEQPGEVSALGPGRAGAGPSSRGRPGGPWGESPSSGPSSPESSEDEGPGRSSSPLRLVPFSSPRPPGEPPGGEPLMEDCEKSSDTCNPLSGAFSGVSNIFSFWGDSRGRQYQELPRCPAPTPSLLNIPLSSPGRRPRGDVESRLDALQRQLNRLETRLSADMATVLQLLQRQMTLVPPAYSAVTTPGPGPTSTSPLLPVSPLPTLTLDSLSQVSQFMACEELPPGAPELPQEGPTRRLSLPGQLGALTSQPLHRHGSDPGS
row,SMILES,"hERG current change (%, negative = inhibition) at 10uM [%]"
1,CCOc1ccc(NC(=O)c2cc(=O)[nH]c3ccccc23)cc1,9.97
2,O=c1cc(-c2ccccc2)c2cc3c(cc2[nH]1)OCCO3,16.2
3,Cc1noc(C)c1COC(=O)c1ccc2c(c1)OCO2,8.72
4,Cc1cccc2nc(CSc3ccccc3N)cn12,3.9
5,O=C(NCc1ccccc1OC(F)(F)F)C1CCC(=O)N(Cc2cccc(F)c2)C1 (stereo not shown),-12.4
6,Cn1c(O)c(C=NCc2ccco2)c(=O)n(C)c1=O,-10.8
7,Cc1ccc(N2C=Nc3ccc(C)c4nc(C)cc2c34)cc1,-42.6
8,Cc1cc(C)n(-c2ccc(NC(=O)C3CCCCN3C(=O)c3ccc(C)s3)cc2)n1 (stereo not shown),-16.7
9,COc1ccc(C(=O)Nc2ccccc2N2CCCC2)cc1,-44.1
10,COc1c(OC(C)=O)c(=O)n2c3ccccc3c3ccnc1c32,-2.05
11,CCNc1nc(NCC)nc(OCCOC(=O)c2ccccc2)n1,-33.1
12,O=C(Nc1ccc(Cl)cc1)[C@@H]1[C@@H]2C(=O)N(c3ccc4ccccc4c3)C(=O)[C@@H]2[C@H]2C=CC=NN21,-3.38
13,O=c1c(-c2ccccc2)nc(-c2ccccc2)cn1O,2.67
14,CCc1ccc(OCC(=O)NC(=S)Nc2cccc(CO)c2)c(Br)c1,13.9
15,CC(C)NC(=O)CN1CCN(c2ncccn2)CC1.O=C(O)C(=O)O,5.84
16,CC12CC3(C)CC(C)(C1)CC(NC(=O)N1CCCC1)(C2)C3,1.92
17,CC1CCCCC1NC(=O)c1cc2c(=O)n3ccccc3nc2n1C (stereo not shown),4.32
18,O=C(CCCN1C(=O)c2cccc3cccc(c23)C1=O)NCCN1CCOCC1,7.31
19,Cc1cc(N2CCN(C)CC2)n2cc(-c3ccc(F)cc3)nc2n1,-87.6
20,CCOc1ccc(C(=O)NCCCn2ccnc2)cc1,-22.9
21,OCCC1CN(C/C=C/c2ccco2)CCN1Cc1ccccc1 (stereo not shown),-8.57
22,COc1ccc(-c2cc(C(=O)NC(Cc3cc4ccccc4[nH]3)C(=O)O)c(C)o2)cc1OC (stereo not shown),18.8

row,SMILES,"hERG current change (%, negative = inhibition) at 10uM [%]"
1,CCOC(=O)CNc1nc(C(C)(C)C)nc2c1nnn2Cc1ccccc1,10
2,CCCc1nc(SC)[nH]c(=O)c1C,7.16
3,Nc1ncn(CC(=O)c2ccccc2)n1,8.12
4,CCc1ccc(C(=O)NC(=S)Nc2ccc(N3CCOCC3)cc2)cc1,17.8
5,O=C(CNC(=O)c1ccc(Br)cc1)NCC(=O)OCC(=O)c1ccc([N+](=O)[O-])cc1,13.4
6,O=C1C2CCCCN2C(=O)N1CCCN1CCN(c2ccc(F)cc2)CC1 (stereo not shown),-34.8
7,CCOC(=O)c1oc2ccccc2c1COC(=O)CNC(=O)c1cc(OC)c(OC)c(OC)c1,-22.9
8,Cc1cc(C)nc(-n2nc(C)c(Sc3ccc(F)cc3)c2N)n1,-61.7
9,Cc1c(NC(=O)c2ccc(N(C)S(C)(=O)=O)cc2)c(=O)n(-c2ccccc2)n1C,8.76
10,O=C(NN1C(=O)c2ccccc2NC1c1ccccn1)c1ccccc1 (stereo not shown),12.2
11,COc1ccc(CCC(=O)OCC(=O)NCc2ccc3c(c2)OCO3)cc1,-22
12,CCN(CC)S(=O)(=O)c1cccc(C(=O)N[C@H](C(=O)OCC(=O)NC(=O)NC)C(C)C)c1,-5.08
13,CCc1ccc(OCC(=O)N/N=C(\C)c2ccc(-n3ccnc3)cc2)cc1,-71.8
14,COc1ccc(C2CC(c3ccc(OC)c(OC)c3)=NN2S(C)(=O)=O)cc1 (stereo not shown),2.96
15,CC(c1nccs1)N(C)C(=O)CCc1nnc(-c2ccc(-c3ccccc3)cc2)o1 (stereo not shown),-29.1
16,COc1ccc(-c2nnc(SCC(=O)Oc3ccc(C)cc3)o2)cc1,13.7
17,Cc1ccc2nc(NC(=S)NC(=O)c3ccc(OC(C)C)cc3)sc2c1,5.92
18,CCCNC(=O)c1c(N)n(-c2cc(OC)cc(OC)c2)c2nc3ccccc3nc12,0.629
19,O=C(CCl)N(c1ccc(Cl)cc1)c1c[nH]c2ccccc12,1.11
20,Fc1ccc(C2c3cccn3CCN2C(=S)Nc2cccc(Br)c2)cc1 (stereo not shown),19.4
21,S=C(NNc1nc(Nc2ccccc2)nc(N2CCCCC2)n1)NC1CCCCC1,20.5
22,Cc1nonc1NC(=O)CSc1nnc(-c2ccoc2C)n1CC(C)C,-17.1

row,SMILES,"hERG current change (%, negative = inhibition) at 10uM [%]"
1,COc1ccc(CCNC(=O)CSc2nc(N)c(C#N)c(-c3cccs3)c2C#N)cc1OC,10.9
2,O=C(c1cccnc1)N1N=C(c2cccs2)CC1c1ccc(F)cc1 (stereo not shown),-34.7
3,Cc1cccc(/C=N/Nc2ccc3ccccc3n2)c1,6.07
4,COC(=O)c1cccc(NC(=O)Nc2ccc(Cl)cc2Cl)c1,10.8
5,COc1ccc(N(CC(=O)N2CCN(c3ccccc3F)CC2)S(=O)(=O)c2c(C)n[nH]c2C)cc1,-20.6
6,Cc1ccc(S(=O)(=O)N2CCOCC2)cc1NC(=O)COC(=O)Cc1cccs1,-62.8
7,Cc1cc([N+](=O)[O-])nn1CC(=O)NCc1cccs1,0.204
8,Nc1nonc1-n1nnc(C(=O)N/N=C/c2ccco2)c1-c1ccccc1,10.9
9,Cc1ccc(NC(=O)C(=O)NC2CCCCC2)cc1,18.9
10,Cc1ccc(SCc2cc(=O)[nH]c(SCC(=O)Nc3cc(Cl)ccc3Cl)n2)cc1,24.5
11,CC/C(C)=N\NC(=O)CNC(=O)c1ccc(Cl)cc1Cl,4.95
12,CCCCNC(=S)N(CCCO)Cc1cc2cc3c(cc2[nH]c1=O)OCCO3,0.486
13,CCC(=O)Nc1cccc(C(=O)/C=C/c2ccccc2)c1,-37
14,COC(=O)N1CCN(c2ccc(C)c(C)c2)CC1,17.6
15,COc1ccccc1-n1c(CNC(=O)c2ccccc2)nnc1SCC(=O)Nc1nnc(C)s1,16.5
16,CC1=NN(C(=O)Cc2ccc([N+](=O)[O-])cc2)C(O)(c2ccccc2)C1 (stereo not shown),-20.1
17,CN(C)CCNc1c2c(nc3nnnn13)CCCC2,1.62
18,CCOc1ccc(NC(=O)CN(C)C(=O)c2cccnc2Sc2ccc(C)c(C)c2)cc1OCC,0.0885
19,CCN1C(=O)[C@H]2[C@@H](c3ccc(C)cc3)N3C(=O)N(c4ccc(OC)cc4)C(=O)[C@@]3(CC)[C@H]2C1=O,15.7
20,O=C1CCC(=O)N1CC(=O)N(c1ccccc1)c1ccccc1,5.36
21,CCCCCOC(=O)C(C)Sc1n[nH]c(=O)[nH]c1=O (stereo not shown),9.11
22,COc1ccc(NC(=O)CSc2nccn2-c2ccccc2)c(OC)c1,-8.53

row,SMILES,"hERG current change (%, negative = inhibition) at 10uM [%]"
1,CCN1C(=O)C(O)(CC(=O)/C=C/C=C/c2ccccc2)c2ccccc21 (stereo not shown),-0.629
2,CCCCSc1nnc(-c2ccc(C)cc2)o1,3.13
3,Cc1nn(CC(=O)NC(C)c2ccccc2)c(=O)c2ccccc12 (stereo not shown),7.18
4,CCN(CC)C(=O)C(=O)c1cccn1-c1cccc(-n2cccc2C(=O)C(=O)N(CC)CC)c1C#N,12.3
5,O=C(COc1cccnc1[N+](=O)[O-])Nc1cccc(S(=O)(=O)N2CCCCC2)c1,1.77
6,O=C(Nc1cccc(C(F)(F)F)c1)Nc1ccc2[nH]c(=O)[nH]c2c1,15.7
7,CCn1c2ccccc2c2cc(NC(=O)CSc3nccc(=O)[nH]3)ccc21,8.6
8,CCOc1cccc(C2C(C#N)=C(N)Oc3cc(C)n(Cc4ccccn4)c(=O)c32)c1OCC (stereo not shown),13.3
9,CCSc1nc2ccccc2n1CC(=O)OC,-1.83
10,CN1C(=O)/C(=C/c2cccn2-c2ccc3ccccc3c2)C(=O)NC1=S,12.2
11,CC(=O)c1ccc(Nc2cc(C)nc3nc(C)nn23)cc1,-49.9
12,COc1ccc2c(c1)C(=O)N(c1ccccc1OC)C(=O)C2,15.1
13,CC(NC(=O)CNC(=O)[C@@H]1Cc2ccccc2CN1)c1ccccc1 (stereo partly shown),8.98
14,CCc1cccc(NC(=O)COC(=O)C2CCN(c3ccc(C(F)(F)F)cn3)CC2)c1,-4.68
15,CCCCOc1ccc(C(=O)N(Cc2ccco2)C2CCS(=O)(=O)C2)cc1 (stereo not shown),-30.3
16,Clc1ccc2c(N/N=C/c3cccnc3)ccnc2c1,-42.7
17,CCOC(=O)C(CC)(CCC(=O)O)c1csc(Nc2ccc(C)cc2)n1 (stereo not shown),16.5
18,O=C(NC1CCCc2ccccc21)C1CCN(S(=O)(=O)c2cnc[nH]2)CC1 (stereo not shown),5.04
19,CNC(=O)C(Sc1nc(C)nc2c1oc1ccccc12)C(C)=O (stereo not shown),2.63
20,CCc1nnc(NC(=O)c2sc3nc4c(cc3c2N)CCCCCC4)s1,4.75
21,CCOC(=O)C1=C(C)Nc2nc3ccccc3n2C1c1ccc(O)cc1 (stereo not shown),7.44
22,CC(=O)C1=C(O)C(=O)N(Cc2cccnc2)C1c1ccc(Cl)cc1 (stereo not shown),6.03
